In all, about 33,000 sequences were measured (“E-score (-0.5 to 0.5)”: median about -0.053, highest 2% from about 0.37 on). The list shows a part of the results.
target: Hap1 (UniProt P0CE41); assay: PBM E-score (8-mer binding enrichment) (E-score (-0.5 to 0.5)); higher = stronger / more preferred TF binding; most listed sequences are background and not binding sites; settings: protein concentration: 200 nM; construct: GST-DNA-binding domain
Method in brief: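 For each ungapped eight-base word taken together with its reverse complement, the Universal PBM Analysis Suite assigned an E-score. Binding data came from GST-tagged yeast transcription factors, applied at about 100-200 nM, on universal all-10-mer Agilent arrays made double-stranded by primer extension. Fluorescent anti-GST marked bound protein, and scans were normalised with masliner.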

Sequence of UniProt P0CE41 (P0CE41 whole entry, the tested form may be a part): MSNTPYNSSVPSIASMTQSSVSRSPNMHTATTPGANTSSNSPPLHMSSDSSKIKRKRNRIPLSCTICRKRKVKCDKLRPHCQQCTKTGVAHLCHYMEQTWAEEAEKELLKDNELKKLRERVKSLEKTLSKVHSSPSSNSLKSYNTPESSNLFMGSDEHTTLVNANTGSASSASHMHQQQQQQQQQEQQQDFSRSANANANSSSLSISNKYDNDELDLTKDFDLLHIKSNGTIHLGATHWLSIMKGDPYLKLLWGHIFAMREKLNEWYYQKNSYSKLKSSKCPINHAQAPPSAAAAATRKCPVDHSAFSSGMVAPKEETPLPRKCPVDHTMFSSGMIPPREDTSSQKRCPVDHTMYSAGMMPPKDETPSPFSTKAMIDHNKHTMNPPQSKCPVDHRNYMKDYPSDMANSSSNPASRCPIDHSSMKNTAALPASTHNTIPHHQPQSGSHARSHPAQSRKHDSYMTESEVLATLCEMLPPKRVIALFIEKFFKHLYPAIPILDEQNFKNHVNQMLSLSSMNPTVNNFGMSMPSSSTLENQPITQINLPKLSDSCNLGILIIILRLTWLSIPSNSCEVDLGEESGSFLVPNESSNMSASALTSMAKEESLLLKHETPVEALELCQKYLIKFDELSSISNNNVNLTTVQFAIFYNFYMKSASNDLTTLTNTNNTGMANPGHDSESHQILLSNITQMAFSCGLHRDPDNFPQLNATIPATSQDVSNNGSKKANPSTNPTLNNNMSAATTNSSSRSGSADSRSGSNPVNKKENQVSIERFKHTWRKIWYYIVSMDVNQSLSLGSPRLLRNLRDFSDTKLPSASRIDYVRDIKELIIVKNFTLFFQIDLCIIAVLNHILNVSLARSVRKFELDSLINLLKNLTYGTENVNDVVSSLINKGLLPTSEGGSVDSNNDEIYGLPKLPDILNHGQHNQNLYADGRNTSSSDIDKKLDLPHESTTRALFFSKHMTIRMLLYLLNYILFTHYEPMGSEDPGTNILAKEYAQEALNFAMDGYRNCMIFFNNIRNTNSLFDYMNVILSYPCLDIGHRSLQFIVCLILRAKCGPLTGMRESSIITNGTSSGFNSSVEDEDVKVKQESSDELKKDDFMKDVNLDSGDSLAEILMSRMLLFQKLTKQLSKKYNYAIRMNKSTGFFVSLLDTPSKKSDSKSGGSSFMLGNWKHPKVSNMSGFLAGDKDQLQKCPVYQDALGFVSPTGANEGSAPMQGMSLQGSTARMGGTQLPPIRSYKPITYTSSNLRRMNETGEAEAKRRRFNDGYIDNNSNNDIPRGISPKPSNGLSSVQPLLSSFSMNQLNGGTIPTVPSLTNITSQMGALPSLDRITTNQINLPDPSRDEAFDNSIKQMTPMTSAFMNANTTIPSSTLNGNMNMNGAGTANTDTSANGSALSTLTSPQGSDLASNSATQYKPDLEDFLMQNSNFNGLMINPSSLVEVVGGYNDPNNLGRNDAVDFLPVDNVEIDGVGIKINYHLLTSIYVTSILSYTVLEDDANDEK

Sequence | PBM E-score
CCGGACCG | 0.431
AGCAATCC | 0.122
GCTTGAAC | 0.105
CATCAGAG | -0.119
CCGGCGGA | 0.421
CTCGGGAC | 0.263
ACTGGGCG | 0.031
ACGGTGCA | -0.19
TACTGTGA | -0.17
ACGTTGTA | -0.146
GGGACACC | 0.0924
CAAGTGCC | -0.145
TCAAGGCA | -0.298
GCAATGGC | 0.0739
AGCCAGAA | -0.187
CCTCGGAG | 0.394
AGACAGTC | -0.149
AACTGAAG | -0.186
CAATATTC | 0.0318
CCAGGAAC | -0.139
ATGCGGGG | 0.0501
CTCATTTA | -0.0627
AGGTCCAA | -0.133
CAGGATAA | -0.144

Sequence | PBM E-score
AACGGATT | 0.338
CTCAGCCA | -0.105
TAATAAAA | 0.0262
GCCAAAAC | -0.0706
CACACCCG | 0.16
CAGGGCCA | -0.233
CTGATTTC | -0.0451
AACGCTAT | -0.0481
ACGATCCT | -0.267
ACTGTCCC | -0.034
AAGAGGGC | -0.271
TAGTCGCA | 0.045
CGAATGCG | 0.224
GGGCTGCA | -0.0068
GGCTGTAC | 0.0566
ATCGACCC | 0.165
AAGGATGG | -0.188
GGTAATGA | 0.0402
CAAATTAG | 0.0251
AAATGTTA | -0.215
CGTCCGCC | 0.281
GATGCGGA | 0.169
CCTGGAAC | -0.227
GGGTGCAC | 0.0546

Sequence | PBM E-score
CCAGATCA | -0.00695
GTCTCTCA | -0.152
ATAATACC | 0.15
AGGTCAAC | -0.0982
CCTGGCCA | -0.224
ATCGTCGA | -0.161
GCTAGAAC | -0.185
CTAGACTA | -0.191
CTTAAACA | 0.0328
CTAGGGGC | -0.123
GCCAGTAC | -0.0313
GACTGGAC | 0.0527
ATCGAGGG | -0.161
ACTACTGG | -0.14
CTGTCAGC | -0.0655
CGCAACCC | -0.0198
CGAATGCC | 0.18
CCTCATCG | 0.101
CTTTAGTC | -0.142
ATGCCGCG | 0.221
GAGGTAGA | 0.0169
AACCCTTG | -0.122
ATCAGGCG | -0.011
ATAACCGC | 0.157

Sequence | PBM E-score
AATGCACA | -0.149
AGCTAATA | -0.15
CATCGGAA | 0.297
CATAAACA | -0.125
ACAGGTCT | -0.215
GTGGAAAC | -0.00378
GAGTACAC | -0.0859
CTAGGTTA | 0.0585
CGTTTAGC | 0.115
AAATTGAG | -0.0939
ATTAGCGG | 0.253
CGCTTTCC | -0.0127
CAGCCAAA | -0.049
AAGTGGTG | -0.199
CCGAGTCG | 0.316
TAACGGCA | 0.234
AACCTGCG | 0.0937
ACTCTTAA | -0.173
ACTCATGC | -0.146
ACACTCAC | 0.0776
GACTGGCC | 0.163
CCACGTGC | -0.26
